The supplement of paper PMC10338343
± gives the standard deviation. This is a selection; strong and weak results do not stand in their true shares.

tested on: MIWI (PIWIL1) piRISC loaded with piRNA #1 (30 nt); assay: pre-steady-state target cleavage rate (min^-1); MIWI and MILI are mouse PIWI proteins and EfPiwi is from a freshwater sponge; tags in brackets are library labels; higher = faster piRNA-guided slicing of the target; details: guide: piRNA #1 5'p-UGAGGUAGUAGGUUGUAUAGUAUCCAGAGG; auxiliary factor: 500 nM mouse GTSF1
In short: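 Reactions were run for 0–8 or 0–960 min at 33 °C in HEPES–potassium acetate buffer, combining 1 nM active affinity-purified piRISC with one synthetic guide, […] transcribed, DNA-blocked target RNA library and, in some cases, 500 nM GTSF1 partner protein. Sequencing of uncleaved targets followed, with normalisation to depth and to weakly complementary targets. Three trials were pooled, k3 was capped at 0.0001 min^-1, and the pre-steady-state cleavage rate was taken from a burst-and-steady-state fit.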
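Further: 1 nM active piRISC with 0.1 nM target library at 33 °C single turnover.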

Sequence	pre-steady-state target cleavage rate
GGAGACCAUACUAUACAACCUAGUACCUGA	0.0113 ± 0.0053
GGAGACGAUUCUAUACAACCUACUUCCUCA	0.413 ± 0.038
GGAGACCAAACUAUACAACCUACUACCUCA	1.09 ± 0.16
CCUCUGCAUACUUUACAACCUACUACCUCA	2.13 ± 0.15
GGAGACCAUACUAUACAACCUUCAACCUCA	0.171 ± 0.017
CCUCUGGAUACUAGUACAACCUACUACCUCA	0.953 ± 0.053
GCUCUGGUUACUAUACAACCUACAACCUCA	1.33 ± 0.079
GCUCUGGAUACUAACAACCUACUACCUCA	1.5 ± 0.1
GGAGAGGAUUCUAUACAACCUACUACCUGA	0.301 ± 0.045
GCAUCUGGAUACUAUACAACCUACUACCUCA	1.82 ± 0.087
GGAGACGAUACUAUUCAACCUAGUACCUCA	0.35 ± 0.035
GGAGUGGAUACUAUACAACGAACUACCUCA	0.0199 ± 0.0037
GGAGAGGAUACUAUUCAACCUACAACCUCA	0.495 ± 0.044
GGAGACGUUACUAUACAACGUACUACCUCA	0.664 ± 0.042
GGAGAGGAUACUAUAGAUCCUACUACCUCA	0.922 ± 0.055
GGAGUCGAUAGUAUACAACCUACUACCUCA	0.994 ± 0.061
GGACUGGAUAGUAUACAACCUAGUACCUCA	0.483 ± 0.056
GGUCUGGAUACUAUACAACGAACUACCUCA	0.0146 ± 0.0024
GGAGAGGAUACUAUACACCUACUACCUCA	0.279 ± 0.026
GGAGAGGAUACUAUUCAUCCUACUACCUCA	1.12 ± 0.057
GGAGACCUAUGAUAUGAUCCUACUACCACA	< 0.0001
GGAGAGGAUACUAUAGAACCUACUACCUCA	0.993 ± 0.061
GGAGACCAUACUAUACAACCUACUAACUCA	1.01 ± 0.067
GGAGUGGAAACUUUACAACCUACUACCUCA	1.17 ± 0.085
